# Earlier results as cited in US20240390359A1, “METHODS FOR THE TREATMENT AND PREVENTION OF NON-VIRAL TICK-BORNE DISEASES AND SYMPTOMS THEREOF” (priority 2023, published 2024).
# Test system: P. falciparum gametocytes
# Conditions: single dose 1.66 mg/kg combined with dihydroartemisinin/piperaquine; cited from earlier work
smiles,measurement,value
"COc1cc(C)c2c(Oc3cccc(C(F)(F)F)c3)c(OC)cc(NC(C)CCCN)c2n1 (stereo not shown) [tafenoquine, N (4)-[2,6-Dimethoxy-4-methyl-5-[3-(trifluoromethyl)phenoxy]quinolin-8-yl] pentane-1,4-diamine]",time until gametocytes non-infectious to mosquitoes,within seven days
